Where a chain is given by its changes, count along the chain named. The list shows a part of the results.
B1: GAUAUCG (DNA:RNA)
RNA: GGGAGACCGGAAUUCAGAUUGUCCGAUAUCGUUAAAUCCCGUCGUAGCCACCA
DNA 1: CAATCTGAATTCCGGTCTCCC
DNA 2: TGGTGGCTACGACGGGATT
B2: ACGUGUG (DNA:RNA)
RNA: B1 RNA with G25A, A26C, U27G, A28U, U29G, C30U
DNA 1: CAATCTGAATTCCGGTCTCCC
DNA 2: TGGTGGCTACGACGGGATT
B3: UCGGGUU (DNA:RNA)
RNA: GGGAGACCGGAAUUCAGAUUGUCCUCGGGUUUUAAAUCCCGUCGUAGCCACCA
DNA 1: CAATCTGAATTCCGGTCTCCC
DNA 2: TGGTGGCTACGACGGGATT
B4: AACGAAG (DNA:RNA)
RNA: B1 RNA with G25A, U27C, A28G, U29A, C30A
DNA 1: CAATCTGAATTCCGGTCTCCC
DNA 2: TGGTGGCTACGACGGGATT
B5: AUGUUAA (DNA:RNA)
RNA: B1 RNA with G25A, A26U, U27G, A28U, C30A, G31A
DNA 1: CAATCTGAATTCCGGTCTCCC
DNA 2: TGGTGGCTACGACGGGATT
B6: CGAGGAA (DNA:RNA)
RNA: B3 RNA with U25C, C26G, G27A, U30A, U31A
DNA 1: CAATCTGAATTCCGGTCTCCC
DNA 2: TGGTGGCTACGACGGGATT
B7: AGAGUGG (DNA:RNA)
RNA: B1 RNA with G25A, A26G, U27A, A28G, C30G
DNA 1: CAATCTGAATTCCGGTCTCCC
DNA 2: TGGTGGCTACGACGGGATT
B8: CCAUUCA (DNA:RNA)
RNA: B1 RNA with G25C, A26C, U27A, A28U, G31A
DNA 1: CAATCTGAATTCCGGTCTCCC
DNA 2: TGGTGGCTACGACGGGATT
B9: UGGAGCU (DNA:RNA)
RNA: B3 RNA with C26G, G28A, U30C
DNA 1: CAATCTGAATTCCGGTCTCCC
DNA 2: TGGTGGCTACGACGGGATT
B10: AUCCACA (DNA:RNA)
RNA: B1 RNA with G25A, A26U, U27C, A28C, U29A, G31A
DNA 1: CAATCTGAATTCCGGTCTCCC
DNA 2: TGGTGGCTACGACGGGATT
B11: CCUGAUG (DNA:RNA)
RNA: B3 RNA with U25C, G27U, G29A, U31G
DNA 1: CAATCTGAATTCCGGTCTCCC
DNA 2: TGGTGGCTACGACGGGATT
B12: AUUGGUU (DNA:RNA)
RNA: B3 RNA with U25A, C26U, G27U
DNA 1: CAATCTGAATTCCGGTCTCCC
DNA 2: TGGTGGCTACGACGGGATT
B13: AGGCCCU (DNA:RNA)
RNA: B3 RNA with U25A, C26G, G28C, G29C, U30C
DNA 1: CAATCTGAATTCCGGTCTCCC
DNA 2: TGGTGGCTACGACGGGATT
B14: CAUUUCG (DNA:RNA)
RNA: B1 RNA with G25C, A28U
DNA 1: CAATCTGAATTCCGGTCTCCC
DNA 2: TGGTGGCTACGACGGGATT
B15: AUGUUCA (DNA:RNA)
RNA: B1 RNA with G25A, A26U, U27G, A28U, G31A
DNA 1: CAATCTGAATTCCGGTCTCCC
DNA 2: TGGTGGCTACGACGGGATT
B16: AGGGUAC (DNA:RNA)
RNA: B3 RNA with U25A, C26G, G29U, U30A, U31C
DNA 1: CAATCTGAATTCCGGTCTCCC
DNA 2: TGGTGGCTACGACGGGATT
B17: CUCGUGG (DNA:RNA)
RNA: B1 RNA with G25C, A26U, U27C, A28G, C30G
DNA 1: CAATCTGAATTCCGGTCTCCC
DNA 2: TGGTGGCTACGACGGGATT
B18: GUAUUGU (DNA:RNA)
RNA: B1 RNA with A26U, U27A, A28U, C30G, G31U
DNA 1: CAATCTGAATTCCGGTCTCCC
DNA 2: TGGTGGCTACGACGGGATT
B19: ACUACUU (DNA:RNA)
RNA: B3 RNA with U25A, G27U, G28A, G29C
DNA 1: CAATCTGAATTCCGGTCTCCC
DNA 2: TGGTGGCTACGACGGGATT
B20: CUUGCUG (DNA:RNA)
RNA: B1 RNA with G25C, A26U, A28G, U29C, C30U
DNA 1: CAATCTGAATTCCGGTCTCCC
DNA 2: TGGTGGCTACGACGGGATT

Biological target: T1, RBFOX1 RRM (Homo sapiens, UniProt Q9NWB1 109-208)
T1 sequence: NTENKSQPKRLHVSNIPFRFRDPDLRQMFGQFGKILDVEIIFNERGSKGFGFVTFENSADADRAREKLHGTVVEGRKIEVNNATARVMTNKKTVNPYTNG
Assay: EMSA; HiTS-Eq, 1 nM pool, 10 min; buffer printed only for the single-RNA assays: 10 mM Tris pH 7.5, 150 mM NaCl, 3.4 mM EDTA, 0.001% NP-40, 30 C
Conditions: tags: His6 N-terminal (pET28a); label: 5' 32P
In short: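 Purified wild-type or mutant RbFox RRM at increasing concentrations was equilibrated with 1 nM of 5′-radiolabelled RNA carrying 7 randomized nucleotides for 10 min in 50 µL. Unbound RNA was separated by 8% native PAGE and sequenced. Relative association constants came from read-count changes of each RNA species compared with the control reaction, normalised to the cognate motif.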

Binder | binding signal
B1 | 0.0155 KA relative to UGCAUGU
B2 | 0.0169 KA relative to UGCAUGU
B3 | 0.0195 KA relative to UGCAUGU
B4 | 0.00636 KA relative to UGCAUGU
B5 | 0.00381 KA relative to UGCAUGU
B6 | 0.011 KA relative to UGCAUGU
B7 | 0.0131 KA relative to UGCAUGU
B8 | 0.00352 KA relative to UGCAUGU
B9 | 0.0239 KA relative to UGCAUGU
B10 | 0.000327 KA relative to UGCAUGU
B11 | 0.0205 KA relative to UGCAUGU
B12 | 0.0109 KA relative to UGCAUGU
B13 | 0.00512 KA relative to UGCAUGU
B14 | 0.00769 KA relative to UGCAUGU
B15 | 0.00747 KA relative to UGCAUGU
B16 | 0.0154 KA relative to UGCAUGU
B17 | 0.00654 KA relative to UGCAUGU
B18 | 0.0125 KA relative to UGCAUGU
B19 | 0.00357 KA relative to UGCAUGU
B20 | 0.0189 KA relative to UGCAUGU
